Measured values: PubChem BioAssay (NCI)
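Following 48 hours of exposure in 96-well plates, responses at five concentrations were used to interpolate endpoints linearly. GI50 marks 50% less growth. TGI marks complete inhibition of growth.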

Test system: NCI-H322M lung
Experiment: growth of human tumour cells (NCI), 48 h

Compound | TGI | GI50
COC(=O)/C=C1/OC(c2ccc(OC)cc2)=C(Cl)C1=O | 50.7 µM | 
CCOC(=O)c1nc2ccc(C(F)(F)F)cc2nc1Oc1ccc(C(=O)OC)cc1 | > 100 µM | 
Cc1ccc(C(=O)N/N=C(\N=Nc2ccc(C(=O)O)cc2)c2ccc(N(CCC#N)CCC#N)cc2C)cc1 | > 100 µM | 
Oc1c(Cl)c(Cl)c(O)c2c1CCCC2 | 31.4 µM | 
CN1CC2CN(Cc3ccccc3)CCN2c2cccnc21 (centres undefined) | > 100 µM | 
OC1CSc2nc3ccccc3n2C1 (centres undefined) | > 100 µM | 
O=C1/C(=N\O)S(=O)(=O)c2ccccc21 | > 100 µM | 
COc1cccc(-c2cc3c4c(nc5ccccc53)C(=O)c3cccnc3-c4n2)c1 | 7.63 µM | 2.75 µM
